The source of these data is PubChem BioAssay AID360 (National Center for Advancing Translational Sciences (NCATS), 2006).

Among all 48,000 compounds or so, about 550 (1.1%) were called active. About 4% were inconclusive and are not listed. No stated cut-off is given here; in the data, active means potency below about 15 µM; inconclusive means mostly about 16 µM to 33 µM; inactive means weaker than that. This is one part of the list. Where only a bound is given, the exact number is not on record here.
Potency means the concentration at half of the fitted maximal effect.

Chain of UniProt P04062 (P04062 whole entry, looked up): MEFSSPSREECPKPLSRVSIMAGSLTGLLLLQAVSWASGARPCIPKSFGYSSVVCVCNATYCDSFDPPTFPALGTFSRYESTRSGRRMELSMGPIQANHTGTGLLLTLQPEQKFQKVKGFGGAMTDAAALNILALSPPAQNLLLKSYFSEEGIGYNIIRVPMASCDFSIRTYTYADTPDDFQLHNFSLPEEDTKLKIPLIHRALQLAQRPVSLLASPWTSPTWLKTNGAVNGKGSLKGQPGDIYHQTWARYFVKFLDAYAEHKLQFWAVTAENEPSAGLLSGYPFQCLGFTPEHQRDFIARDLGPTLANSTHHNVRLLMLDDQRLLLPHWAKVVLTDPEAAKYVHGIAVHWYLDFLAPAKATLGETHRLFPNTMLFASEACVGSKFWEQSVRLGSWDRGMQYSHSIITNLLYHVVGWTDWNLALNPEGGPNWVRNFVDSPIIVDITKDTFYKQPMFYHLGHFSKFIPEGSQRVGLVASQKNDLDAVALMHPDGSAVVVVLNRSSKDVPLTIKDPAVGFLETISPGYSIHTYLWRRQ

In the assay the target is Lysosomal acid glucosylceramidase (Homo sapiens) (UniProt P04062). In words: Glucocerebrosidase.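 Further: the screen sought inhibitors.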 The conditions noted are these: purified enzyme, resorufin glucoside fluorescence (screen aimed at inhibitors), 20 min; series mostly up to 77 µM. An outline of the steps:
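Compounds titrated against 0.2 nM normal enzyme, 30 uM resorufin beta-D-glucopyranoside substrate, citrate/phosphate buffer with taurocholate and tween-20, pH 5.9. Reaction ran 20 min at room temperature; fluorescence (Ex 548/Em 600) gave AC50.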
For the molecule `C=CCn1c(SCC(=O)Nc2cc(C)ccc2C)nnc1-c1cnccn1`, the Potency was inactive: > 76.9 µM.
With `CCCc1nn(CCc2ccccn2)c(N)c1CC` the entry was “inactive”; with `CCCCC(c1nnnn1CCOC)N1CCN(C(=O)c2ccco2)CC1` (stereo unspecified), inactive: > 76.9 µM.
Under `CC(=O)c1cc2cc(O)ccc2o1` stands inactive: > 76.9 µM; under `COC(=O)c1cn(CC(=O)NCc2ccco2)c2ccccc12`, inactive: > 76.9 µM; under `O=C(O)c1cc2cc(Cl)ccc2oc1=O`, inactive: > 76.9 µM.
With `CCC(C(=O)NCc1ccc(F)cc1)N(Cc1ccco1)C(=O)c1snc(C(N)=O)c1N` (stereo unspecified) the figure was inactive: > 76.9 µM; with `O=C(OCc1cc2ccccc2[nH]c1=O)c1cccnc1`, inactive: > 76.9 µM.
For the molecule `CCOC(=O)c1cccc(NC(=O)CSc2nnc(-c3cccnc3)n2C)c1`, the Potency was inactive: > 76.9 µM.
Under `C=CCNc1sc(C(=O)c2cccs2)c(N)c1C#N` stands inactive: > 76.9 µM.
As to `CCCCn1c(CN2CCN(c3cccc(Cl)c3)CC2)nc2c1c(=O)[nH]c(=O)n2C`, the Potency was inactive: > 76.9 µM.
For the molecule `Cn1nc(C(=O)OCCN2C(=O)c3ccccc3C2=O)c2ccccc2c1=O`, the Potency is inactive: > 76.9 µM.
With `COc1ccc(C2CC(C(F)(F)F)n3nc(C(=O)O)cc3N2)cc1OC` (stereo unspecified) the figure was inactive: > 76.9 µM.
Turning to `O=C(Cn1nc(C(F)F)cc1C1CC1)NCCC1=CCCCC1`, the Potency is inactive: > 76.9 µM.
Regarding `CCn1c(SCC(=O)NCc2ccccc2)nnc1-c1ccccc1O`, the Potency is inactive: > 76.9 µM.
Regarding `CCOC(=O)N1CCC(n2c(SCC(=O)NCc3ccccc3)nc3ccccc3c2=O)CC1`, the Potency was inactive: > 76.9 µM.
Under `O=C(CSc1nnc(CN2CCOCC2)n1-c1ccccc1)Nc1ccc(Cl)cc1` stands inactive: > 76.9 µM.
In the case of `CCN(CC)S(=O)(=O)c1ccc(C(=O)NCc2n[nH]c(=S)n2-c2ccccc2OC)cc1`, the Potency was inactive: > 76.9 µM.
With `CC1CCN(C(c2ccc(N(C)C)cc2)c2nnnn2Cc2ccccc2)CC1` (stereo unspecified) the figure was inactive: > 76.9 µM.
With `CCc1[nH]nc2c1C1(CCN(C(=O)OCc3ccccc3)CC1)C(C#N)=C(N)O2` the figure was inactive: > 76.9 µM; with `COc1ccccc1CCNC(=O)c1ccoc1C`, inactive: > 76.9 µM; with `CCn1c(SCC(=O)N2CCC(C(N)=O)(N3CCCCC3)CC2)nc2ccccc2c1=O`, inactive: > 76.9 µM.
With `COc1nc2cc(C)ccc2cc1-c1noc(-c2cccnc2)n1` the figure was inactive: > 76.9 µM.
Turning to `O=C(Nc1cc(C(F)(F)F)ccc1N1CCOCC1)c1cncc(Br)c1`, the Potency is inactive: > 76.9 µM.
Under `C=CCN(c1ccc(C(N)=O)cc1)S(C)(=O)=O` stands inactive: > 76.9 µM; under `COc1cc(CCC(=O)OCC(=O)Nc2ncc(Cl)cc2Cl)cc(OC)c1OC`, inactive: > 76.9 µM; under `CCOc1ccc(-c2nnn(CC(=O)Nc3cc(OC)cc(OC)c3)n2)cc1OCC`, inactive: > 76.9 µM.
Under `CCOc1ccccc1C1C(C#N)=C(N)Nc2onc(-c3ccccc3)c21` (stereo unspecified) stands inactive: > 76.9 µM; under `Cc1ccnc(SCCn2c(Br)nc3c2c(=O)[nH]c(=O)n3C)n1`, inactive: > 76.9 µM; under `O=C(O)c1ccc(CS(=O)(=O)c2cccc(C(F)(F)F)c2)o1`, inactive: > 76.9 µM.
With `COCCCNC(=O)C1CC(=O)N(CCc2ccc(OC)c(OC)c2)C1` (stereo unspecified) the figure was inactive: > 76.9 µM; with `COCCn1c(SCC(=O)c2ccccc2)nc2c(c1=O)SC(C)C2` (stereo unspecified), inactive: > 76.9 µM.
Take `Nn1c(SC/C=C/c2ccccc2)nnc1-c1ccco1`: the Potency was inactive: > 76.9 µM.
With `Cc1ccc2cc(CN(C(=O)C3CCCO3)C3CCCCC3)c(=O)[nH]c2c1` (stereo unspecified) the figure was inactive: > 76.9 µM; with `CCN(CC)CCNC(=O)CCCCn1c(=S)[nH]c2c([nH]c3ccc(OC)cc32)c1=O`, “inactive”.
With `C=CCC(NCCCO)c1cccc(OC)c1OC` (stereo unspecified) the figure was inactive: > 76.9 µM.
On to `CCn1c2ccccc2c2nc3cc(S(=O)(=O)N4CCOCC4)ccc3nc21`, for which the Potency was inactive: > 76.9 µM.
Under `CC(C)N1CC(C(=O)Nc2ccc(Br)c(Cl)c2)CC1=O` (stereo unspecified) stands inactive: > 76.9 µM; under `CCOc1cc(C(=O)Nc2ccc(N3CCN(S(C)(=O)=O)CC3)cc2)cc(OCC)c1OCC`, inactive: > 76.9 µM.
Under `c1ccc(-n2ncc3c2ncn2c(C4CCCCC4)nnc32)cc1` stands inactive: > 76.9 µM; under `Cc1c(NC(=O)CSc2ccccc2C(=O)Nc2cccnc2)c(=O)n(-c2ccccc2)n1C`, inactive: > 76.9 µM; under `COCCNc1nnc(SCC(=O)c2ccc3c(c2)OCO3)s1`, inactive: > 76.9 µM.
With `COCC(=O)Nc1nc2n(n1)C(c1ccccc1Cl)CC(c1ccc(OC)cc1)N2` (stereo unspecified) the figure was inactive: > 76.9 µM; with `O=C(CSc1ccc2nnc(-c3ccccc3)n2n1)N1CCCCC1`, inactive: > 76.9 µM; with `O=C(NCCN1CCc2ccccc2C1)C1CCN(S(=O)(=O)N2CCCCC2)CC1`, inactive: > 76.9 µM.
For `CCOc1ccc(N2CC(C(=O)NCCc3ccc(OC)c(OC)c3)CC2=O)cc1` (stereo unspecified), the Potency is inactive: > 76.9 µM.
Under `CCC(Sc1nc2c(c(=O)[nH]1)CCC2)C(=O)Nc1cccc(OC)c1` (stereo unspecified) stands inactive: > 76.9 µM.
With `COCCOC(=O)C(C#N)c1nc2ccccc2nc1N1CCCC1` (stereo unspecified), the Potency is inactive: > 76.9 µM.
As for `CCc1nc2oc3cc(OC)ccc3c(=O)c2c(=O)n1-c1ccccc1`, the Potency is inactive: > 76.9 µM.
Under `CCc1nn(CC(=O)NCCCN(CC)Cc2ccccc2)c(=O)c2cc3sccc3n12` stands inactive: > 76.9 µM; under `CCC(c1nnnn1CCc1ccccc1)N1CCN(c2ccc(OC)cc2)CC1` (stereo unspecified), inactive: > 76.9 µM.
Turning to `CC1Oc2ccccc2N(Cc2cccnc2)C1=O` (stereo unspecified), the Potency was inactive: > 76.9 µM.
Under `CC(C)(C)NC(=O)Cn1c(SCC(=O)N2CCCCCC2)nc2ccccc21` stands inactive: > 76.9 µM; under `Cc1[nH]n2c(=O)c(C#N)c(-c3ccccc3)nc2c1-c1ccccc1`, inactive: > 76.9 µM; under `COc1cccc(-c2cc(C(=O)NCc3ccco3)no2)c1`, inactive: > 76.9 µM.
Under `CCOC(=O)N1CCN(C(=O)c2cccc(OC)c2OC)CC1` stands inactive: > 76.9 µM; under `COc1cccc(C(=O)CSc2nnc(-c3ccco3)n2CC2CCCO2)c1` (stereo unspecified), inactive: > 76.9 µM.
With `O=C(Oc1cc(=O)oc2ccccc12)c1ccco1`, the Potency is inactive: > 76.9 µM.
`Cn1c(=O)n(Cc2ccc(F)cc2)c(=O)c2c1nc1n2CCCN1Cc1ccccc1`: the Potency was inactive: > 76.9 µM.
With `CCC(=O)Nc1ccc2c(c1)nc(CCN1CCN(C)CC1)n2C` the figure was inactive: > 76.9 µM; with `O=C(c1ccco1)N1CCN(c2c(-c3ccccc3)c3cc(Cl)ccc3[nH]c2=O)CC1`, inactive: > 76.9 µM.
Under `Cc1ccc(C)c(N(CC(=O)N(C)C)S(C)(=O)=O)c1` stands inactive: > 76.9 µM; under `c1cc(-c2noc(-c3ccc4c(c3)OCO4)n2)ccn1`, inactive: > 76.9 µM.
Turning to `CCOC(=O)c1ccc(Oc2nc(NC)nc(SC)n2)cc1`, the Potency was inactive: > 76.9 µM.
Under `O=C(CCCN1CCOCC1)c1ccc2c(c1)OCCO2` stands inactive: > 76.9 µM.
`COc1ccccc1N1CCN(C(=O)Cn2nc(C(F)(F)F)c3c2CCC3)CC1`: the Potency is inactive: > 76.9 µM.
Under `CCOC(=O)CCc1c(C)c2ccc(OCC(=O)OC(C)C)cc2oc1=O` stands “inactive”; under `COc1ccc(-c2noc(CN3CCN(c4ccccc4F)CC3)n2)cc1OC`, inactive: > 76.9 µM.
With `COC(=O)C1=C(C)OC(N)=C(C#N)C1c1cc(OC)c(OCC(N)=O)cc1Cl` (stereo unspecified) the figure was inactive: > 76.9 µM.
As for `C=CCNC(=O)CCCOc1cc(C)ccc1C`, the Potency is inactive: > 76.9 µM.
With `COc1cccc(-c2cc(C(=O)Nc3ccc(OC)c(OC)c3)no2)c1` the figure was inactive: > 76.9 µM; with `CC(C)n1c(SCC(N)=O)nc2c1c(=O)n(C)c(=O)n2C`, inactive: > 76.9 µM.
Under `O=c1[nH]c(C(F)(F)F)nc2ccccc12` stands inactive: > 76.9 µM; under `O=C(NCc1ccc(F)cc1)c1cccc(S(=O)(=O)N2CCCC2)c1`, inactive: > 76.9 µM; under `COc1ccc(C)cc1S(=O)(=O)NC1CCCC1`, inactive: > 76.9 µM.
Under `Cc1occc1-c1nnc(SCC(=O)c2c[nH]c3ccccc23)n1C` stands inactive: > 76.9 µM; under `CCn1nc(NC(=O)c2ccncc2)c2cc3ccccc3nc21`, inactive: > 76.9 µM; under `Cn1c(C(=O)N2CCCc3ccccc32)cc2c(=O)n3ccccc3nc21`, inactive: > 76.9 µM.
As for `CC(C)(C)c1cc(C(=O)NCc2ccco2)ccn1`, the Potency was inactive: > 76.9 µM.
With `CC(C)C(=O)Nc1cc(=O)[nH]c2ncnn12` the figure was inactive: > 76.9 µM; with `Cc1ccccc1-n1c(-c2ccncc2)n[nH]c1=S`, inactive: > 76.9 µM; with `Cc1cc(NC2C3CC4CC(C3)CC2C4)n2nnnc2n1` (stereo unspecified), inactive: > 76.9 µM.
For `Cc1cc(C)nc(NC2=NC3CCCCC3N2)n1` (stereo unspecified), the Potency was inactive: > 76.9 µM.
For the molecule `Cc1ccc(N2CCN(CCc3nc4cc(NC(=O)c5ccco5)ccc4n3C)CC2)cc1`, the Potency was inactive: > 76.9 µM.
Regarding `COc1ccc(C)cc1C(=O)C1CC(C(=O)O)C(C)(C)C1C` (stereo unspecified), the Potency is inactive: > 76.9 µM.
Under `COc1ccc2[nH]c(=O)c(CN(CCCN(C)C)C(=O)Nc3ccccc3)cc2c1` stands inactive: > 76.9 µM.
Under `COc1ccc(CCN(C(=O)c2ccc(F)cc2)C2=CC3CCC(C2)N3C)cc1OC` (stereo unspecified) stands inactive: > 76.9 µM; under `CCOC(=O)c1cc(CNC(=O)c2c(C)oc3c2CCCC3)c(C)o1`, inactive: > 76.9 µM.
Under `Cc1ccccc1NC(=O)CSc1nc(N)c(C#N)c(-c2cccs2)c1C#N` stands inactive: > 76.9 µM; under `CCOC(=O)C(CO)(NC(C)=O)C(=O)OCC`, inactive: > 76.9 µM; under `Cc1occc1-c1nnc(SCC(=O)Nc2ccccc2N2CCCCC2)n1C`, inactive: > 76.9 µM.
